# Experimental data as given in PubChem BioAssay AID1508642 (National Center for Advancing Translational Sciences (NCATS), 2021).
# Screen size: about 43,000 compounds; about 200 (0.47%) were called active. Inconclusive results (about 12%) are left out. The call rests on the fitted dose curve; in most records, active means well fitted cell-killing curve with a large enough effect; inconclusive means small, poorly fitted or top-dose-only effect, or effect the other way; inactive means flat fitted curve, though single readings scatter. The list shows a part of the results.
# Assay: Cell viability qHTS assay in S16 Pmp22-F2sN cells; further: nearly all actives have a fitted effect of over 65% in size
# Details: S16 Pmp22-F2sN Schwann cells viability, CellTiter-Glo, 24 h; series mostly up to 57.5 µM; activity change, negative = cytotoxicity: at the top concentration
# Outline: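 Viability was measured by CellTiter-Glo luminescence (15 min, room temperature). This followed 24 h at 37 °C of compound exposure (23 nL pin transfer) in S16 Pmp22-F2sN Schwann cells, 500-1,000 per well.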
# On the % scale 0 is the no-effect control and ±100 the full control effect.
row,Compound,"activity change, negative = cytotoxicity"
1,CCCNC(=O)Cn1nc(C)c2c(C)n(-c3ccccc3)nc2c1=O,inactive: 13.5%
2,CC1CCN(S(=O)(=O)c2cccc(C(=O)N(C)C3(C)CCS(=O)(=O)C3)c2)CC1 (stereo unspecified),inactive: -1.15%
3,CCCCNC(=O)CSc1nc2ccccc2nc1Cc1ccccc1,inactive: 28.5%
4,CCc1nn(CCCC(=O)NCc2ccc(OC)c(OC)c2)c(=O)c2cc3occc3n12,inactive: 7.15%
5,COC(=O)C1CCN(c2csc3ccc(C)cc3c2=O)CC1,inactive: 15.8%
6,CCN(CCCNC(=O)c1ccc(Sc2ccc(Cl)cc2)c(NC(C)=O)c1)c1cccc(C)c1,inactive: -2.69%
7,c1ccc(N2CCN(c3ncnc4c3nc3n4CCCCC3)CC2)cc1,inactive: -11.5%
8,Cc1ccc(C)c(NC(=O)CN(Cc2ccccc2)S(=O)(=O)c2ccc3nc(C)sc3c2)c1,inactive: -0.95%
9,CN1c2ccccc2-c2nc(SCC(=O)Nc3ccccc3)ncc2S1(=O)=O,inactive: -7.98%
10,O=C(CSc1oc(-c2ccco2)nc1S(=O)(=O)c1ccc(Br)cc1)c1ccc(Cl)cc1,inactive: -4.34%
11,COc1cc(C2Oc3nc(SC)nnc3-c3ccccc3N2C(C)=O)cc(Cl)c1OC (stereo unspecified),inactive: -2.1%
12,Cc1cc(Br)ccc1NC(=O)c1sc2ncn(Cc3ccccc3Cl)c(=O)c2c1C,inactive: -12.5%
13,CCN1C(=O)c2ccccc2S(=O)(=O)c2ccc(C(=O)NCc3ccc(F)cc3)cc21,inactive: 9.51%
14,Cc1ccc(CNC(=O)CN2C(=O)COc3ccc(S(=O)(=O)N4CCC(C)CC4)cc32)cc1,inactive: 0.921%
15,COc1ccc(NC(=O)c2ccc3[nH]c(C)cc(=O)c3c2)cc1,inactive: 6.39%
16,Cc1ccc(NC(=O)Cc2coc3c(C)c(C)ccc23)c(C)c1,inactive: 7.23%
17,Cc1ccc(-n2cc(C(=O)OCc3ccc(Cl)cc3)c3ccccc3c2=O)cc1,inactive: 1.1%
18,Cc1c(Cl)cccc1NC(=O)C(=O)NCCc1csc(-c2cccc(F)c2)n1,inactive: 10.7%
19,CC(NC(=O)c1ccc(N2Cc3ccccc3Oc3ncccc32)s1)c1ccccc1 (stereo unspecified),inactive: -20.8%
20,Cc1ccc(/C=C/c2onc(C)c2S(=O)(=O)N2CCC(C(=O)NCc3ccc(Cl)cc3)CC2)cc1,inactive: 1.91%
21,O=C(NCCc1ccc(Cl)cc1)c1ccc2c(c1)N(Cc1ccc(F)cc1Cl)C(=O)CS2,inactive: 13.2%
22,CCOC(=O)C(C)NC(=O)c1cc2c(=O)[nH]c3ccc(C)cc3c2s1 (stereo unspecified),inactive: 11.2%
23,COc1ccc(-c2nc(CSc3nc4ncccc4[nH]3)c(C)o2)cc1OC,inactive: -26.7%
24,CC(NC(=O)Cc1ccc(NC(=O)N2CCCCc3ccccc32)cc1)c1ccccc1 (stereo unspecified),inactive: 26%

row,Compound,"activity change, negative = cytotoxicity"
1,COc1ccc(NC(=O)c2ccc(-c3cccc(Cl)c3C)o2)cc1,inactive: 2.79%
2,COc1ccc(-c2[nH]c(-c3ccccc3)nc2SCC(=O)Nc2ccc3c(c2)OCO3)cc1,inactive: -25.2%
3,CCn1c(CN2CCCCC2)nc2cc(NC(=O)COc3ccc([N+](=O)[O-])cc3)ccc21,inactive: -4.59%
4,Cc1cc(=O)n(C(C)C(=O)NCc2ccccc2Cl)c2c1c(C)nn2-c1ccccc1 (stereo unspecified),inactive: -12.7%
5,O=C(Nc1ccc(F)cc1)c1cccc(N2CCCS2(=O)=O)c1,inactive: 2.36%
6,Cc1c2cnn(CC(=O)N3CCCCC3)c(=O)c2c(C)n1Cc1ccc(Cl)cc1,inactive: -8.05%
7,CCc1ccc(C2N3CC4(C)CN2CC(c2ccccc2)(C3)C4=O)cc1 (stereo unspecified),inactive: 4.5%
8,Cc1ccc(NC(=O)c2ccc3c(=O)n4nc(Nc5ccccc5C)sc4nc3c2)cc1C,inactive: 10.6%
9,CCn1cc(C(=O)NCc2ccccc2)c(=O)c2cc(S(=O)(=O)N3CCOCC3)ccc21,inactive: 1.63%
10,COC(=O)C1=C(C)NC(=O)NC1c1cn(-c2ccccc2)nc1-c1ccc(OC)c(Cl)c1 (stereo unspecified),inactive: -27.4%
11,Cc1ccc(C(C)C)c(OCC(=O)Nc2c(C(=O)c3ccc(F)cc3)oc3ccccc23)c1,inactive: 10.2%
12,Cc1cc(O)c(C(c2ccccc2Cl)N2CCCCC2)c(=O)n1Cc1ccco1 (stereo unspecified),inactive: -5.9%
13,COc1ccc(N(C(=O)c2ccccc2C)S(=O)(=O)c2ccc3c(c2)n(C)c(=O)n3C)cc1,inactive: 7.04%
14,CCOc1ccccc1NS(=O)(=O)c1c(C(=O)OC)sc2cccc(F)c12,inactive: 7.1%
15,COc1ccc(OC)c(CCNC(=O)c2sc3nc4n(c(=O)c3c2C)CCCC4)c1,inactive: 2.48%
16,CCNc1c(NC(=O)c2ccccc2OCC)c(=O)oc2ccccc12,inactive: 5.24%
17,CSCCC(NC(=O)C1CCCCC1)C(=O)Nc1ccc(F)c(Cl)c1 (stereo unspecified),inactive: -2.1%
18,CCN(c1ncnc2c1c(-c1ccccc1)cn2-c1ccccc1)C1CCCCC1,inactive: 8.59%
19,Cc1ccc(OCC(=O)OCc2cc(=O)n3nc(C4CCCCC4)sc3n2)cc1,inactive: -11.9%
20,Cc1ccc(S(=O)(=O)N2CCCc3cc(NC(=O)c4ccc(C(F)(F)F)cc4)ccc32)cc1,inactive: -25.5%
21,COc1cccc(-c2nc(SC(C(C)=O)C(=O)N(C)C)c3c(=O)n(C)c(=O)n(C)c3n2)c1 (stereo unspecified),inactive: -7.38%
22,CCOC(=O)C1=C(CNCc2ccccc2)NC(=O)NC1c1ccc(C)cc1 (stereo unspecified),inactive: -10.1%
23,Cc1ccc(N2C(=O)[C@@H]3CSC(c4ccc(C(F)(F)F)cc4)N3C2=O)cc1 (stereo partly specified),inactive: 2.57%
24,Cc1ccc(-c2cc(-c3coc4ccccc4c3=O)c3c(n2)-c2cc(Cl)ccc2OC3)cc1,inactive: 12%

row,Compound,"activity change, negative = cytotoxicity"
1,COc1ccccc1NC(=O)Cn1c(SCC(=O)NCc2ccccc2)nc2ccccc21,inactive: -4.73%
2,CC(=O)Nc1ccc(-c2nnc3n(CC(C)C)c(=O)c4ccccc4n23)cc1,inactive: -15.6%
3,COc1cc(-c2nnc(SCC(=O)N(C)C3CCCCC3)o2)cc(OC)c1OC,inactive: -9.66%
4,COc1ccc(NC(=O)CCCN2C(=O)C(c3ccccc3)Oc3cccnc32)cc1OC (stereo unspecified),inactive: 5.28%
5,Cc1ccc(CCNC(=O)CCCn2nc(C)c3c(C)n(-c4ccc(C)cc4)nc3c2=O)cc1,inactive: 0.539%
6,COc1ccc(CCC(=O)NCCc2csc(-c3cccc(F)c3)n2)cc1,inactive: 9.14%
7,COc1ccc(NC(=O)c2oc3ccc4c(c3c2C)C(=O)CC(C)(C)O4)cc1OC,inactive: 5.78%
8,COc1cc2c(cc1NC(=O)C(C)Oc1ccc(Cl)cc1Cl)oc1ccccc12 (stereo unspecified),inactive: 4.88%
9,CCc1ccc(OCC2c3cc(OC)c(OC)cc3CCN2C(=O)Cc2ccc(OC)c(OC)c2)cc1 (stereo unspecified),inactive: -25.7%
10,CCOC(=O)C1=C(CS(=O)(=O)c2ccc(F)c(C)c2)NC(=O)NC1c1ccc(F)c(F)c1 (stereo unspecified),inactive: -0.878%
11,CC(=O)N1CCc2c(sc(NC(=O)CSc3ccc(C)cc3)c2-c2nc3ccccc3s2)C1,inactive: -0.922%
12,Cc1cccc(N2CCN(C(=O)c3cccc(-n4c(C)nc5cccnc54)c3)CC2C)c1 (stereo unspecified),inactive: -19.7%
13,Cc1c(C(=O)Nc2ccccc2Cl)oc2ccc(S(=O)(=O)N3CCCCCC3)cc12,inactive: -0.0524%
14,O=C1CC(=O)Nc2cc(S(=O)(=O)Nc3cccc(Br)c3)ccc2N1,inactive: -1.8%
15,COC(=O)c1cc2sc(Cl)cc2n1Cc1nc(-c2ccccc2F)oc1C,inactive: -5.2%
16,Cc1ccc(CCNC(=O)c2ccc(CNS(=O)(=O)c3ccc(F)cc3)cc2)cc1,inactive: 8.45%
17,COc1ccc(OC)c(CCNc2ncnc3onc(C)c23)c1,inactive: -17.2%
18,Cc1cc(C)c2c(n1)SCC(=O)N2CC(=O)Nc1c(C)cccc1C,inactive: 9.96%
19,Cc1cc(C)cc(NC(=O)Nc2c[nH]c(=O)[nH]c2=O)c1,inactive: 1.49%
20,COCCN1C(=O)c2oc3ccc(C)cc3c(=O)c2C1c1ccc(C(=O)OC)cc1 (stereo unspecified),inactive: 6.17%
21,CSc1ncc(C(=O)NCc2cccc(Br)c2)c(-c2ccccc2)n1,inactive: 0.276%
22,O=C(Cn1c(=O)c2sccc2n(CC(=O)Nc2ccc(Cl)cc2Cl)c1=O)NCCc1ccccc1,inactive: -2.16%
23,Cc1ccc(NC(=O)N2CCc3c([nH]c4ccccc34)C2c2ccccc2F)c(Cl)c1 (stereo unspecified),inactive: -6.32%
24,CCCN1Cc2cccc(C(=O)Nc3ccc(OC)cc3OC)c2C1=O,inactive: 18.2%

row,Compound,"activity change, negative = cytotoxicity"
1,COc1cccc(C(=O)c2cn(CC(=O)Nc3cccc(Cl)c3C)c3nc(C)ccc3c2=O)c1,inactive: 8.59%
2,COc1ccc(C(C(=O)NCc2ccccc2)N(C(=O)Cn2nnc3ccccc32)c2ccc(OC)cc2)cc1 (stereo unspecified),inactive: 1.65%
3,COc1ccc(CNS(=O)(=O)c2ccc3c(c2)C(C)(C)C(=O)N3C)cc1OC,inactive: -3.59%
4,Cc1ccc(C(C)C)c(OCC(=O)Nc2ccc(-c3nc4ncccc4o3)cc2C)c1,inactive: -4.2%
5,O=C(NCc1ccccc1F)C(=O)NCC(c1ccco1)S(=O)(=O)c1ccccc1 (stereo unspecified),inactive: -3.79%
6,Cc1ccc(CC(=O)NCc2nc(-c3cccc(C)c3)no2)cc1,inactive: 15.2%
7,Cc1ccc(N(C)C(=O)c2noc3c2CCCCC3)cc1C,inactive: 3.05%
8,CN(C)c1ccc(-c2nc3ccccn3c2Nc2ccc3c(c2)OCCO3)cc1,inactive: -19%
9,Cc1cccc(N2CCN(C(=O)c3c4c(nc5ccccc35)C(=O)N(C3CCCCC3)C4)CC2)c1C,inactive: 18.3%
10,COc1ccc(OC)c(NC(=O)c2cc3c(=O)n4cccc(C)c4nc3n2C)c1,inactive: 9.63%
11,COc1cc(OC)c(NC(=O)C(C)n2nc(-c3ccc(C)c(C)c3)ccc2=O)cc1Cl (stereo unspecified),inactive: -28.9%
12,COc1cccc(NC(=O)CSc2nnc(NC(=O)NC3CCCCC3)s2)c1,inactive: 5.14%
13,Cc1cccc(C)c1OCc1cc(=O)n2ccsc2n1,inactive: -2.56%
14,CCCOc1ccccc1C(=O)Nc1nc2c(s1)CCCC2,inactive: -5.14%
15,CN(Cc1ccccc1)C(=O)c1ccc2c(c1)N(Cc1ccc(Cl)cc1)C(=O)c1ccccc1S2=O (stereo unspecified),inactive: -6.7%
16,Cc1oc(-c2ccc(Cl)cc2)nc1CN1CCCC(C(=O)NCc2ccc(Cl)cc2)C1 (stereo unspecified),inactive: 16%
17,CCOC(=O)c1cnc2c(C)cc(C)cc2c1Nc1ccc(N2CCOCC2)cc1,inactive: -24.3%
18,CCOC(=O)N1CCN(C(=O)c2cnn(-c3cccc(C)c3)c2-n2cccc2)CC1,inactive: 2.67%
19,COc1cccc(NS(=O)(=O)c2ccc3[nH]cc(C(=O)N(C)Cc4ccco4)c(=O)c3c2)c1,inactive: 5.4%
20,Cn1c(=O)c2c(c3ccccc31)OC(=O)CC2c1ccccc1 (stereo unspecified),inactive: 10.3%
21,COc1ccc(NC(=O)c2ccc3c(=O)n4nc(Nc5ccccc5C)sc4nc3c2)cc1,inactive: 11.3%
22,O=c1c2ccccc2n2c(-c3cccc(F)c3)nnc2n1Cc1ccccc1,inactive: -14.7%
23,CCOc1ccc(N(CC)S(=O)(=O)N2CCCC(C(=O)NCc3ccc(SC)cc3)C2)cc1 (stereo unspecified),inactive: -27.6%
24,COc1cccc(CNC(=O)NCc2noc3ccc(C)cc23)c1,inactive: 8.88%
